{
  "source": "PubChem BioAssay (Tox21)",
  "key": {"[1]": {"assay": "qHTS assay for small molecule agonists of the p53 signaling pathway (AID 651631; calls by dose curve; note: nearly all actives have a fitted effect of over 15% in size; for activation: % is set by controls: 0 for no effect and ±100 for the full control effect)", "conditions": "HCT-116 p53RE-bla reporter, beta-lactamase FRET ratio, 16 h; activation: at 73.3 µM (top of the series) unless noted", "method_in_brief": "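p53RE-bla HCT-116 cells; compounds 16 h, 37 °C; LiveBLAzer B/G FRET substrate 2 h RT; fluorescence intensity read-out, qHTS format.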"}, "[2]": {"assay": "qHTS assay for small molecule disruptors of the mitochondrial membrane potential (AID 720635); for ratio activity, negative = MMP loss: % is set by controls: 0 for no effect and ±100 for the full control effect", "conditions": "HepG2 mitochondrial membrane potential, Mito-MPS dye ratio; ratio activity, negative = MMP loss: at 83.2 µM (top of the series) unless noted", "method_in_brief": "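HepG2 cells exposed to compound 1 hr at 37C, then Mito-MPS dye 30 min. Ratio read of aggregate (540/590 nm) versus monomer (490/535 nm) fluorescence.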"}, "[3]": {"target": "Glucocorticoid receptor (Homo sapiens) (UniProt P04150)", "sequence (P04150 whole entry, looked up)": "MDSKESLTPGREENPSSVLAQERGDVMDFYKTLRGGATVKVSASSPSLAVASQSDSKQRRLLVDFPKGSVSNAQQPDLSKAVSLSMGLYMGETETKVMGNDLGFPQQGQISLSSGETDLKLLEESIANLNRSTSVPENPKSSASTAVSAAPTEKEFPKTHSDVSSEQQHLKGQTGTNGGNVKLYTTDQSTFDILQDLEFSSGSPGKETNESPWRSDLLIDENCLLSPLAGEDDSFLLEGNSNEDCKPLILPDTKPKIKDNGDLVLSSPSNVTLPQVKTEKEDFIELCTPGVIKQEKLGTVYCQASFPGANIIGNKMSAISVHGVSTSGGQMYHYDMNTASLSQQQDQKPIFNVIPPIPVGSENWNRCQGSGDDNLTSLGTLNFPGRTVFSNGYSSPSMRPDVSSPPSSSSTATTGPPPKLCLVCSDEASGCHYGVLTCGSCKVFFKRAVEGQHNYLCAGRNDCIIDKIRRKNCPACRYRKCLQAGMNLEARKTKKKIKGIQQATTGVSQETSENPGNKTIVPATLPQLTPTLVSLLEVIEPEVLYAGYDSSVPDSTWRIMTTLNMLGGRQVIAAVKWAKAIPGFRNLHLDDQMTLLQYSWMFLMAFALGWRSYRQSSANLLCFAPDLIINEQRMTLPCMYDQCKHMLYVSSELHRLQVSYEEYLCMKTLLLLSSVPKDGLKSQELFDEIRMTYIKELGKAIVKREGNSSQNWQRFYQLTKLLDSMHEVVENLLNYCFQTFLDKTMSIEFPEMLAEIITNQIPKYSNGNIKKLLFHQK", "assay": "qHTS assay to identify small molecule agonists of the glucocorticoid receptor (GR) signaling pathway (AID 720691; active = well fitted activation curve with a large enough effect in the signal ratio in the repeat runs, not every such curve was filed as active; inconclusive = weak or mixed curves, or effect the other way; inactive = no such curve, though single readings can be large or run the other way; the % refers to the signal ratio; for activation: % is set by controls: 0 for no effect and ±100 for the full control effect)", "conditions": "GR-bla HeLa, beta-lactamase reporter ratio, 18 h; activation: at 62.4 µM (top of the series) unless noted", "method_in_brief": "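Beta-lactamase reporter activity, read as fluorescence intensity, was measured in GR-bla HeLa cells exposed to compounds for 18 h at 37 C and then loaded with LiveBLAzer B/G FRET substrate for 2 h at room temperature.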"}, "[4]": {"target": "Glucocorticoid receptor (Homo sapiens) (UniProt P04150)", "assay": "qHTS assay to identify small molecule antagonists of the glucocorticoid receptor (GR) signaling pathway (AID 720692; active = well fitted inhibition curve with a large enough effect in the signal ratio in the repeat runs, not every such curve was filed as active; inconclusive = weak or mixed curves, or effect the other way; inactive = no such curve, though single readings can be large or run the other way; the % refers to the signal ratio; for activity change, negative = inhibition: % is set by controls: 0 for no effect and ±100 for the full control effect)", "conditions": "GR-bla HeLa, beta-lactamase FRET ratio, dexamethasone-stimulated, 18 h; activity change, negative = inhibition: at 58.5 µM (top of the series) unless noted", "method_in_brief": "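Fluorescence from cleaved LiveBLAzer B/G FRET substrate reports GRE-driven beta-lactamase in HeLa cells; compounds are tested against 5 nM dexamethasone (final) over 18 h at 37 C, substrate incubation 2 h at room temperature.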"}, "[5]": {"assay": "qHTS assay to identify small molecule antagonists of the glucocorticoid receptor (GR) signaling pathway - cell viability counter screen (AID 720693); note: nearly all actives have a fitted effect of over 55% in size", "conditions": "GR-bla HeLa viability, CellTiter-Glo luminescence, 18 h, with 5 nM dexamethasone present; viability change, negative = cytotoxic: at 58.5 µM (top of the series)"}},
  "note": "Activity calls are given as the source filed them. Unless noted, calls come from the whole dose curve; as a rule, active = well fitted curve in the direction sought with a large enough effect in the repeat runs; inconclusive = weak or mixed curves; inactive = no such curve, though single readings can be large; an effect the other way counts as inactive or inconclusive. Potency is the fitted concentration of half-maximal effect; tags give direction and shape of the fitted curve or compound fluorescence and quenching.",
  "data": [
    {"smiles": "C[C@@H](O[C@H]1OCCN(Cc2n[nH]c(=O)[nH]2)[C@H]1c1ccc(F)cc1)c1cc(C(F)(F)F)cc(C(F)(F)F)c1", "values": [
      {"measurement": "Potency", "setting": "[1]", "result": "active: 29.8 µM"},
      {"measurement": "Potency", "setting": "[2]", "result": "inconclusive: 9.44 µM [activator, partial curve]"},
      {"measurement": "Potency", "setting": "[3]", "result": "inconclusive: 26.8 µM [cytotoxic, single point]"},
      {"measurement": "Potency", "setting": "[4]", "result": "inconclusive: 26.8 µM [cytotoxic]"},
      {"measurement": "Potency", "setting": "[5]", "result": "active: 21.3 µM"}
    ]},
    {"smiles": "O=[N+]([O-])c1ccc(O)c2ncccc12", "values": [
      {"measurement": "Potency", "setting": "[1]", "result": "inconclusive: 6.68 µM [falling, full curve]"},
      {"measurement": "Potency", "setting": "[2]", "result": "active: 6.68 µM"},
      {"measurement": "activation", "setting": "[3]", "result": "inconclusive: -10.9% [phenotype inactive]"},
      {"measurement": "Potency", "setting": "[4]", "result": "inconclusive: 23.9 µM [partial curve]"}
    ]},
    {"smiles": "CN1CC[C@H](c2c(O)cc(O)c3c(=O)cc(-c4ccccc4Cl)oc23)[C@H](O)C1", "values": [
      {"measurement": "Potency", "setting": "[1]", "result": "inconclusive: 0.106 µM [cytotoxic]"},
      {"measurement": "Potency", "setting": "[2]", "result": "inconclusive: 15 µM [activator, partial curve]"},
      {"measurement": "Potency", "setting": "[3]", "result": "inconclusive: 10.7 µM [rising, partial curve]"},
      {"measurement": "Potency", "setting": "[4]", "result": "active: 0.674 µM"},
      {"measurement": "Potency", "setting": "[5]", "result": "active: 0.601 µM"}
    ]},
    {"smiles": "Cc1cccc(C)c1OCC(=O)N[C@@H](Cc1ccccc1)[C@@H](O)C[C@H](Cc1ccccc1)NC(=O)[C@H](C(C)C)N1CCCNC1=O", "values": [
      {"measurement": "Potency", "setting": "[1]", "result": "inconclusive: 0.298 µM [activator, single point]"},
      {"measurement": "Potency", "setting": "[2]", "result": "inconclusive: 31.2 µM [inhibitor, single point]"},
      {"measurement": "Potency", "setting": "[4]", "result": "active: 23.9 µM"}
    ]},
    {"smiles": "CN1CCCC(n2nc(Cc3ccc(Cl)cc3)c3ccccc3c2=O)CC1", "note": "(configuration not stated)", "values": [
      {"measurement": "Potency", "setting": "[1]", "result": "inconclusive: 21.1 µM [rising, partial curve, poor fit]"},
      {"measurement": "Potency", "setting": "[2]", "result": "inconclusive: 26.6 µM [activator, partial curve]"},
      {"measurement": "Potency", "setting": "[4]", "result": "inactive"}
    ]},
    {"smiles": "COc1c(Br)cc(Br)c(C)c1Br", "values": [
      {"measurement": "Potency", "setting": "[1]", "result": "inconclusive: 68.6 µM"},
      {"measurement": "Potency", "setting": "[2]", "result": "inconclusive: 30.6 µM [partial curve]"},
      {"measurement": "activity change, negative = inhibition", "setting": "[4]", "result": "inconclusive: 25.3%"}
    ]},
    {"smiles": "C[C@@H]1C[C@H]2[C@@H]3C[C@H](F)C4=CC(=O)C(Cl)=C[C@]4(C)[C@@]3(F)[C@@H](O)C[C@]2(C)[C@@]1(O)C(=O)CO", "values": [
      {"measurement": "Potency", "setting": "[1]", "result": "inactive"},
      {"measurement": "Potency", "setting": "[2]", "result": "inconclusive: 22.1 µM [activator, partial curve]"},
      {"measurement": "Potency", "setting": "[3]", "result": "active: 0.0151 µM [inconclusive]"},
      {"measurement": "Potency", "setting": "[4]", "result": "inconclusive: 0.0151 µM [activator, full curve]"}
    ]},
    {"smiles": "CCCCCCCCCCCCSC#N", "values": [
      {"measurement": "Potency", "setting": "[1]", "result": "inactive"},
      {"measurement": "Potency", "setting": "[2]", "result": "inconclusive: 68.6 µM [activator, single point]"},
      {"measurement": "activity change, negative = inhibition", "setting": "[4]", "result": "inconclusive: -23.9%"}
    ]},
    {"smiles": "Cc1ccc([N+](=O)[O-])c(N)c1", "values": [
      {"measurement": "Potency", "setting": "[1]", "result": "inconclusive: 18.9 µM [falling, partial curve, poor fit]"},
      {"measurement": "Potency", "setting": "[2]", "result": "inactive"},
      {"measurement": "activity change, negative = inhibition", "setting": "[4]", "result": "inconclusive: 23.6%"}
    ]},
    {"smiles": "Oc1c(I)cc(I)c2cccnc12", "values": [
      {"measurement": "Potency", "setting": "[1]", "result": "inconclusive: 5.96 µM [activator]"},
      {"measurement": "ratio activity, negative = MMP loss", "setting": "[2]", "result": "inconclusive: -32.6%"},
      {"measurement": "Potency", "setting": "[3]", "result": "inconclusive: 9.52 µM [rising, partial curve, poor fit]"},
      {"measurement": "Potency", "setting": "[4]", "result": "inconclusive: 10.7 µM"}
    ]},
    {"smiles": "Nc1ccc(Oc2ccc(Cl)cc2)cc1", "values": [
      {"measurement": "Potency", "setting": "[1]", "result": "inconclusive: 67.1 µM [falling, single point]"},
      {"measurement": "Potency", "setting": "[2]", "result": "inconclusive: 26.7 µM [activator]"},
      {"measurement": "Potency", "setting": "[4]", "result": "active: 24 µM"}
    ]},
    {"smiles": "CC1COC(=O)O1", "note": "(configuration not stated)", "values": [
      {"measurement": "Potency", "setting": "[1]", "result": "inconclusive: 70.8 µM [activator]"},
      {"measurement": "Potency", "setting": "[2]", "result": "inconclusive: 28.2 µM [fluorescent, partial curve, poor fit]"},
      {"measurement": "Potency", "setting": "[4]", "result": "inactive"}
    ]},
    {"smiles": "c1ccc(CCCc2ccncc2)cc1", "values": [
      {"measurement": "Potency", "setting": "[1]", "result": "inconclusive: 77 µM [falling, single point]"},
      {"measurement": "Potency", "setting": "[2]", "result": "active: 10.9 µM"},
      {"measurement": "activity change, negative = inhibition", "setting": "[4]", "result": "inconclusive: 10%"}
    ]},
    {"smiles": "COc1ccc2cc(S(=O)(=O)N[C@H](CC(=O)N[C@H](Cc3ccc(CN4[C@H](C)CCC[C@@H]4C)cc3)C(=O)N(C)C(C)C)c3ccc4c(c3)OCO4)ccc2c1", "values": [
      {"measurement": "Potency", "setting": "[1]", "result": "inconclusive: 64.9 µM [cytotoxic]"},
      {"measurement": "Potency", "setting": "[2]", "result": "active: 10.3 µM"},
      {"measurement": "Potency", "setting": "[3]", "result": "inconclusive: 58.3 µM [cytotoxic]"},
      {"measurement": "Potency", "setting": "[4]", "result": "inconclusive: 58.3 µM [inhibitor, single point]"},
      {"measurement": "Potency", "setting": "[5]", "result": "inconclusive: 58.3 µM [cytotoxic, single point]"}
    ]},
    {"smiles": "C/C=C/C=C/COC(=O)C(C)C", "values": [
      {"measurement": "Potency", "setting": "[1]", "result": "inconclusive: 68.6 µM [activator]"},
      {"measurement": "Potency", "setting": "[2]", "result": "inactive"},
      {"measurement": "Potency", "setting": "[4]", "result": "active: 34.7 µM"}
    ]},
    {"smiles": "CC(=O)c1ccc(Cl)c(Cl)c1Cl", "values": [
      {"measurement": "Potency", "setting": "[1]", "result": "inconclusive: 34.3 µM [activator]"},
      {"measurement": "Potency", "setting": "[2]", "result": "inconclusive: 48.5 µM [inhibitor, partial curve, poor fit]"},
      {"measurement": "activity change, negative = inhibition", "setting": "[4]", "result": "inconclusive: 30%"}
    ]}
  ]
}
